Molecular target: PF-7802-labelled proteins in ARPE-19 cells (Homo sapiens, UniProt P07339)
Settings: pretreatment 2 µM inhibitor, PF-7802 100 nM, ARPE-19 cells

C[C@@]1(c2cc(-c3cncnc3)c(F)cc2F)CCSC(N)=N1 [LY2811376, reference compound]
SILAC result for CatD: high SILAC ratios for CatD

NC1=N[C@@]2(c3cc(NC(=O)c4ccc(F)cn4)ccc3F)COC[C@H]2CS1 [LY2886721, reference compound]
SILAC result for CatD: not significantly distinguishable from DMSO controls

Source: publication PMC5062570 (Nature Communications, 2016)
